Drawing on patent US20220363757A1, this text covers EC50 for 2 molecules.

This assay concerns the target cynomolgus LAG-3 on transiently transfected CHO-S cells (cynomolgus). The assay is described as follows: flow cytometry on transfected CHO-S cells.

B1: antibody 15646 (antibody, human IgG1, kappa)
heavy: QVQLQQWGAGLLKPSETLSLTCAVYGGSFSGYYWSWIRQPPGKGLEWIGEINHRGSTNYNPSLKSRVTISVDTSKNQFSLKLSSVTAADTAVYYCTRGEEWESLFFDYWGQGTLVTVSSASTKGPSVFPLAPSSKSTSGGTAALGCLVKDYFPEPVTVSWNSGALTSGVHTFPAVLQSSGLYSLSSVVTVPSSSLGTQTYICNVNHKPSNTKVDKRV[human IgG1 Fc with changes not shown]
light: EIVLTQSPATLSLSPGERATLSCRASQSISSYLAWYQQKPGQAPRLLIYGASNRATGIPARFSGSGSGTDFTLTISSLEPEDFAVYYCQQRSNWPLTFGGGTRVEIKRTVAAPSVFIFPPSDEQLKSGTASVVCLLNNFYPREAKVQWKVDNALQSGNSQESVTEQDSKDSTYSLSSTLTLSKADYEKHKVYACEVTHQGLSSPVTKSFNRGEC
For B1, the EC50 is 0.11 nM.

B2: antibody 15595 (antibody)
heavy: QVQLVQSGAEVKKPGASVKVSCKVSGYSLTEISMHWVRQAPGKGLEWMGGFDPEDGETIYAQRFQGRVIMTEDTSTDTAYMELSSLRSEDTAVYYCATGGWGPNWFDPWGQGTLVTVSSASTKGPSVFPLAPSSKSTSGGTAALGCLVKDYFPEPVTVSWNSGALTSGVHTFPAVLQSSGLYSLSSVVTVPSSSLGTQTYICNVNHKPSNTKVDKRV[human IgG1 Fc with changes not shown]
light: DIQMTQSPSSVSASVGDRVTITCRASQGISSWLAWYQQKPGKAPKLLIYAASSLQSGVPSRFSGSGSGTDFTLTISSLQPEDFATYYCQQANSFPFTFGPGTKVDIKRTVAAPSVFIFPPSDEQLKSGTASVVCLLNNFYPREAKVQWKVDNALQSGNSQESVTEQDSKDSTYSLSSTLTLSKADYEKHKVYACEVTHQGLSSPVTKSFNRGEC
B2: the EC50 came to 0.03 nM.
